Measured values reported in the supplement of paper PMC4967469.
The IC50 comes from the fitted curve, where viability falls to half of the control; fits outside the tested doses are given as limits. For AUC the same curve is integrated over the 256-fold range of doses and scaled to a fraction; it is 1 without any effect and falls as sensitivity rises. A top dose marked as inferred is not printed in the source and was worked back from the curve model. For some of these results: Drugs with an entry number were screened twice under separate entries, and the two screens often disagree.

Key:
Assay in all cases: Viability of human cancer cell lines after 72 h of drug (GDSC screen)
Shikonin = compound: CC(C)=CC[C@@H](O)C1=CC(=O)c2c(O)ccc(O)c2C1=O [Shikonin]; details: top dose 16 µM; top dose inferred
Procedure: (§1)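 Human cancer cell lines in 384-well plates, medium with 10% serum, drug for 72 h over a 256-fold dose range (nine 2-fold or five 4-fold steps up to the top dose). Adherent lines were fixed and stained with the nucleic acid dye Syto60, suspension lines read with resazurin; signal relative to control wells, capped at 0 and 100%. One two-parameter sigmoid per drug and line, fitted in a mixed model over all curves with the slope shared within a line.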

CGP-082996 (CINK4) = compound: CCNc1cc(NC2CCC(O)CC2)nc(Nc2ccc3c(ccn3Cc3ccccc3)c2)n1 [CGP-082996 (CINK4)]; details: top dose 5.12 µM; top dose inferred
Procedure: as §1

HG-5-113-01 = compound: CNC(=O)c1ccc(Nc2cc(Nc3ccccc3S(=O)(=O)C(C)C)c3cc[nH]c3n2)nc1 [HG-5-113-01]; details: top dose 10 µM; top dose inferred
Procedure: as §1

A-770041 = compound: COc1cc(-c2nn([C@H]3CC[C@H](N4CCN(C(C)=O)CC4)CC3)c3ncnc(N)c23)ccc1NC(=O)c1cc2ccccc2n1C [A-770041]; details: top dose 5.12 µM; top dose inferred
Procedure: as §1

XMD8-85 = compound: COc1cc(N2CCN(C)CC2)ccc1Nc1ncc2c(n1)N(C)c1ccccc1C(=O)N2C [XMD8-85]; details: top dose 8 µM; top dose inferred
Procedure: as §1

BMS-536924 = compound: Cc1cc(N2CCOCC2)cc2[nH]c(-c3c(NC[C@@H](O)c4cccc(Cl)c4)cc[nH]c3=O)nc12 [BMS-536924]
Procedure: as §1

BIRB 0796 = compound: Cc1ccc(-n2nc(C(C)(C)C)cc2NC(=O)Nc2ccc(OCCN3CCOCC3)c3ccccc23)cc1 [BIRB 0796]; details: top dose 10 µM; top dose inferred
Procedure: as §1

SB-525334 = compound: Cc1cccc(-c2[nH]c(C(C)(C)C)nc2-c2ccc3nccnc3c2)n1 [SB-525334]; details: top dose 20 µM; top dose inferred
Procedure: as §1

VX-702 = compound: NC(=O)c1ccc(N(C(N)=O)c2c(F)cccc2F)nc1-c1ccc(F)cc1F [VX-702]; details: top dose 2 µM; top dose inferred
Procedure: as §1

Olaparib = compound: O=C(c1cc(Cc2n[nH]c(=O)c3ccccc23)ccc1F)N1CCN(C(=O)C2CC2)CC1 [Olaparib]
Procedure: as §1

Wee1 inhibitor 681640 = compound: O=C1NC(=O)c2c1c(-c1ccccc1Cl)cc1[nH]c3ccc(O)cc3c21 [Wee1 inhibitor 681640]; details: top dose 2 µM; top dose inferred
Procedure: as §1

[1] = top dose 4 µM, screen: GDSC drug entry 1091, top dose inferred
[2] = top dose 5.12 µM, screen: GDSC drug entry 62
[3] = top dose 5 µM, screen: GDSC drug entry 1017, top dose inferred
[4] = top dose 10 µM, screen: GDSC drug entry 1495

Question: VA-ES-BJ (soft tissue, adherent) was tested. Which AUC (Shikonin) did it give?
Answer: 0.361

Question: What about the IC50 (Shikonin) of the same cell line?
Answer: 0.403 µM

Question: What about the AUC (CGP-082996 (CINK4)) of the same cell line?
Answer: 0.976

Question: What about the IC50 (CGP-082996 (CINK4)) of the same cell line?
Answer: > 5.12 µM

Question: And the AUC (HG-5-113-01)?
Answer: 0.855

Question: What about the IC50 (HG-5-113-01) of the same cell line?
Answer: 8.72 µM

Question: And the AUC (A-770041)?
Answer: 0.921

Question: What about the IC50 (A-770041) of the same cell line?
Answer: > 5.12 µM

Question: And the AUC (XMD8-85)?
Answer: 0.957

Question: What about the IC50 (XMD8-85) of the same cell line?
Answer: > 8 µM

Question: And the AUC (BMS-536924; [1])?
Answer: 0.984

Question: And the IC50 (BMS-536924; [1])?
Answer: > 4 µM

Question: And the AUC (BMS-536924; [2])?
Answer: 0.932

Question: And the IC50 (BMS-536924; [2])?
Answer: > 5.12 µM

Question: What about the AUC (BIRB 0796) of the same cell line?
Answer: 0.98

Question: What about the IC50 (BIRB 0796) of the same cell line?
Answer: > 10 µM

Question: And the AUC (SB-525334)?
Answer: 0.971

Question: What about the IC50 (SB-525334) of the same cell line?
Answer: > 20 µM

Question: What about the AUC (VX-702) of the same cell line?
Answer: 0.968

Question: What about the IC50 (VX-702) of the same cell line?
Answer: > 2 µM

Question: What about the AUC (Olaparib; [3]) of the same cell line?
Answer: 0.889

Question: What about the IC50 (Olaparib; [3]) of the same cell line?
Answer: > 5 µM

Question: And the AUC (Olaparib; [4])?
Answer: 0.976

Question: What about the IC50 (Olaparib; [4]) of the same cell line?
Answer: > 10 µM

Question: What about the AUC (Wee1 inhibitor 681640) of the same cell line?
Answer: 0.876

Question: What about the IC50 (Wee1 inhibitor 681640) of the same cell line?
Answer: > 2 µM

Question: With VCaP (prostate, adherent) as the cell line, how does the AUC (Shikonin) read?
Answer: 0.437

Question: And the IC50 (Shikonin)?
Answer: 0.669 µM

Question: What about the AUC (CGP-082996 (CINK4)) of the same cell line?
Answer: 0.956

Question: What about the IC50 (CGP-082996 (CINK4)) of the same cell line?
Answer: > 5.12 µM

Question: And the AUC (HG-5-113-01)?
Answer: 0.816

Question: And the IC50 (HG-5-113-01)?
Answer: 5.83 µM

Question: And the AUC (A-770041)?
Answer: 0.98

Question: What about the IC50 (A-770041) of the same cell line?
Answer: > 5.12 µM

Question: What about the AUC (XMD8-85) of the same cell line?
Answer: 0.91

Question: And the IC50 (XMD8-85)?
Answer: > 8 µM

Question: What about the AUC (BMS-536924; [1]) of the same cell line?
Answer: 0.846

Question: What about the IC50 (BMS-536924; [1]) of the same cell line?
Answer: 3.09 µM

Question: And the AUC (BMS-536924; [2])?
Answer: 0.465

Question: What about the IC50 (BMS-536924; [2]) of the same cell line?
Answer: 0.256 µM

Question: And the AUC (BIRB 0796)?
Answer: 0.976

Question: And the IC50 (BIRB 0796)?
Answer: > 10 µM

Question: What about the AUC (SB-525334) of the same cell line?
Answer: 0.56

Question: And the IC50 (SB-525334)?
Answer: 1.83 µM

Question: And the AUC (VX-702)?
Answer: 0.987

Question: And the IC50 (VX-702)?
Answer: > 2 µM

Question: And the AUC (Olaparib; [3])?
Answer: 0.987

Question: What about the IC50 (Olaparib; [3]) of the same cell line?
Answer: > 5 µM

Question: What about the AUC (Olaparib; [4]) of the same cell line?
Answer: 0.979

Question: And the IC50 (Olaparib; [4])?
Answer: > 10 µM

Question: And the AUC (Wee1 inhibitor 681640)?
Answer: 0.986

Question: And the IC50 (Wee1 inhibitor 681640)?
Answer: > 2 µM

Question: How did the AUC (Shikonin) turn out when WIL2-NS (lymphoid neoplasm, suspension) was run?
Answer: 0.413

Question: What about the IC50 (Shikonin) of the same cell line?
Answer: 0.606 µM

Question: What about the AUC (CGP-082996 (CINK4)) of the same cell line?
Answer: 0.983

Question: And the IC50 (CGP-082996 (CINK4))?
Answer: > 5.12 µM

Question: And the AUC (HG-5-113-01)?
Answer: 0.835

Question: What about the IC50 (HG-5-113-01) of the same cell line?
Answer: 4.94 µM

Question: What about the AUC (A-770041) of the same cell line?
Answer: 0.709

Question: What about the IC50 (A-770041) of the same cell line?
Answer: 1.09 µM

Question: What about the AUC (XMD8-85) of the same cell line?
Answer: 0.886

Question: What about the IC50 (XMD8-85) of the same cell line?
Answer: 6.01 µM

Question: What about the AUC (BMS-536924; [1]) of the same cell line?
Answer: 0.962

Question: And the IC50 (BMS-536924; [1])?
Answer: > 4 µM

Question: And the AUC (BMS-536924; [2])?
Answer: 0.895

Question: And the IC50 (BMS-536924; [2])?
Answer: 4.17 µM

Question: What about the AUC (BIRB 0796) of the same cell line?
Answer: 0.992

Question: And the IC50 (BIRB 0796)?
Answer: > 10 µM

Question: And the AUC (SB-525334)?
Answer: 0.977

Question: What about the IC50 (SB-525334) of the same cell line?
Answer: > 20 µM

Question: What about the AUC (VX-702) of the same cell line?
Answer: 0.974

Question: And the IC50 (VX-702)?
Answer: > 2 µM

Question: And the AUC (Olaparib; [3])?
Answer: 0.975

Question: What about the IC50 (Olaparib; [3]) of the same cell line?
Answer: > 5 µM

Question: What about the AUC (Olaparib; [4]) of the same cell line?
Answer: 0.951

Question: And the IC50 (Olaparib; [4])?
Answer: > 10 µM

Question: What about the AUC (Wee1 inhibitor 681640) of the same cell line?
Answer: 0.992

Question: And the IC50 (Wee1 inhibitor 681640)?
Answer: > 2 µM

Question: Which results are given for WSU-DLCL2 (B-cell lymphoma, suspension)?
Answer: AUC (Shikonin): 0.694; IC50 (Shikonin): 3.14 µM; AUC (CGP-082996 (CINK4)): 0.993; IC50 (CGP-082996 (CINK4)): > 5.12 µM; AUC (HG-5-113-01): 0.96; IC50 (HG-5-113-01): > 10 µM; AUC (A-770041): 0.993; IC50 (A-770041): > 5.12 µM; AUC (XMD8-85): 0.989; IC50 (XMD8-85): > 8 µM; AUC (BMS-536924; [1]): 0.712; IC50 (BMS-536924; [1]): 0.876 µM; AUC (BMS-536924; [2]): 0.992; IC50 (BMS-536924; [2]): > 5.12 µM; AUC (BIRB 0796): 0.99; IC50 (BIRB 0796): > 10 µM; AUC (SB-525334): 0.991; IC50 (SB-525334): > 20 µM; AUC (VX-702): 0.986; IC50 (VX-702): > 2 µM; AUC (Olaparib; [3]): 0.986; IC50 (Olaparib; [3]): > 5 µM; AUC (Olaparib; [4]): 0.912; IC50 (Olaparib; [4]): > 10 µM; AUC (Wee1 inhibitor 681640): 0.984; IC50 (Wee1 inhibitor 681640): > 2 µM

Question: How did the AUC (Shikonin) turn out when no-11 (glioma, adherent) was run?
Answer: 0.471

Question: What about the IC50 (Shikonin) of the same cell line?
Answer: 0.814 µM

Question: What about the AUC (CGP-082996 (CINK4)) of the same cell line?
Answer: 0.948

Question: And the IC50 (CGP-082996 (CINK4))?
Answer: > 5.12 µM

Question: And the AUC (HG-5-113-01)?
Answer: 0.914

Question: And the IC50 (HG-5-113-01)?
Answer: > 10 µM

Question: What about the AUC (A-770041) of the same cell line?
Answer: 0.924

Question: What about the IC50 (A-770041) of the same cell line?
Answer: > 5.12 µM

Question: And the AUC (XMD8-85)?
Answer: 0.918

Question: And the IC50 (XMD8-85)?
Answer: > 8 µM

Question: What about the AUC (BMS-536924; [1]) of the same cell line?
Answer: 0.978

Question: And the IC50 (BMS-536924; [1])?
Answer: > 4 µM

Question: And the AUC (BMS-536924; [2])?
Answer: 0.893

Question: And the IC50 (BMS-536924; [2])?
Answer: > 5.12 µM

Question: And the AUC (BIRB 0796)?
Answer: 0.971

Question: What about the IC50 (BIRB 0796) of the same cell line?
Answer: > 10 µM

Question: And the AUC (SB-525334)?
Answer: 0.932

Question: And the IC50 (SB-525334)?
Answer: > 20 µM

Question: What about the AUC (VX-702) of the same cell line?
Answer: 0.977

Question: What about the IC50 (VX-702) of the same cell line?
Answer: > 2 µM

Question: And the AUC (Olaparib; [3])?
Answer: 0.961

Question: What about the IC50 (Olaparib; [3]) of the same cell line?
Answer: > 5 µM

Question: What about the AUC (Olaparib; [4]) of the same cell line?
Answer: 0.979

Question: What about the IC50 (Olaparib; [4]) of the same cell line?
Answer: > 10 µM

Question: What about the AUC (Wee1 inhibitor 681640) of the same cell line?
Answer: 0.983

Question: What about the IC50 (Wee1 inhibitor 681640) of the same cell line?
Answer: > 2 µM
